From PMC6511868
These are yes or no findings as the source states them, for the method shown. Binding seen in cells or lysates may run through a third protein. Some entries that bind do so weakly or less than the wild type. For some of these results: Sequences can lack the tags named with a protein.

Amino acid sequences for entries named in this document (tags omitted).
UniProt Q03195: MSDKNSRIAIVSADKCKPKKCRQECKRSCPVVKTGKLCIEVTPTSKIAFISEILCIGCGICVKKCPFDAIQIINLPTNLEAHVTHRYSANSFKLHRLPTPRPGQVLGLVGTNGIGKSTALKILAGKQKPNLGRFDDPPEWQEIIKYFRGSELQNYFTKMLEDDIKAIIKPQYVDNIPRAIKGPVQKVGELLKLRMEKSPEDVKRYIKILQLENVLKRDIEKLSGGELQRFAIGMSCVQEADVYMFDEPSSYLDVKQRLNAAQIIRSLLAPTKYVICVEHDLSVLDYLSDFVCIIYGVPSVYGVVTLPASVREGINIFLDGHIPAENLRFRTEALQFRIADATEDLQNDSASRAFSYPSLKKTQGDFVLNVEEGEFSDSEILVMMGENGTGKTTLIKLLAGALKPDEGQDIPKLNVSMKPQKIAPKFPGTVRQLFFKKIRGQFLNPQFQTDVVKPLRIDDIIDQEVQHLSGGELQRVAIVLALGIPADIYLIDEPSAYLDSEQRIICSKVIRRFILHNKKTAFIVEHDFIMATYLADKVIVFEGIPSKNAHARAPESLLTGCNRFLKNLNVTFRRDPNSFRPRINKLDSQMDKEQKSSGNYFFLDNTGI

Key:
Experiment in all cases: co-IP; yeast lysates; GFP-Trap_A beads (GFP-tagged baits) or IgG-Sepharose (TAP-tagged baits), 3 h at 4°C, western blot; wild type and the strains sup45-2, rat8-2, rat7ΔN shifted to 37°C for 1 h; also 0.5 mg/ml cycloheximide for 30 min; also high copy RLI1
Rli1-GFP (S. cerevisiae) = Rli1-GFP (S. cerevisiae) (UniProt Q03195)
[1] = biological target: T1, Dbp5 as precipitated in the Dbp5 IPs (tag not told) (S. cerevisiae) (UniProt P20449)
T1 sequence: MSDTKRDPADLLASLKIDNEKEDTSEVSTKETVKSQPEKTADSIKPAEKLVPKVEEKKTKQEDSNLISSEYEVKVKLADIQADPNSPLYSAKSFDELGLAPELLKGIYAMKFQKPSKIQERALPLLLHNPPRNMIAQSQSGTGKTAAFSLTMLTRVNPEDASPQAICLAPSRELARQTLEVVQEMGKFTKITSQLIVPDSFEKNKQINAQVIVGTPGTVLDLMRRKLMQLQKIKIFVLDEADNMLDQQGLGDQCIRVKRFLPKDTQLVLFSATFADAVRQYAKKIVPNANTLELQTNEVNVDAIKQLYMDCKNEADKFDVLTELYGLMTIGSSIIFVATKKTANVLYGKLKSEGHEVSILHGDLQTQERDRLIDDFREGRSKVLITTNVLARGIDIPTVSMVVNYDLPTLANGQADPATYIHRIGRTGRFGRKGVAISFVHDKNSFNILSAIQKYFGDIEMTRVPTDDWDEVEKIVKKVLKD

uS3-GFP (S. cerevisiae) = biological target: T2, uS3-GFP (S. cerevisiae) (UniProt P05750)
T2 sequence: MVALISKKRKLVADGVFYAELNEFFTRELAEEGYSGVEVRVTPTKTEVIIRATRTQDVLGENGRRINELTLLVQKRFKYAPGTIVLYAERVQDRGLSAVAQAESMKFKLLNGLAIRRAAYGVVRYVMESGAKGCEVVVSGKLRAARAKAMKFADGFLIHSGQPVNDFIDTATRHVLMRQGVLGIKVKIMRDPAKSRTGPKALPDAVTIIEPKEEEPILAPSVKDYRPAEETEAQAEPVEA

[2] = biological target: T3, uL29 as bait of the co-IP of Figure 6C (tag not told) (S. cerevisiae) (UniProt P0CX84)
T3 sequence: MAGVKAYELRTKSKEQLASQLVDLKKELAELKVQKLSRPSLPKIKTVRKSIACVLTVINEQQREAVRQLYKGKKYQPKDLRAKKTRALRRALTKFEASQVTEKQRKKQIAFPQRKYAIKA

eRF1-GFP (S. cerevisiae) = eRF1-GFP (S. cerevisiae) (UniProt P12385)
[3] = biological target: Prt1-GFP (S. cerevisiae), P06103; settings: remark: other sources report otherwise

B1: small ribosomal protein uS3 (yeast Rps3) (protein, UniProt P05750 1-240)
chain: T2 sequence
binding (Rli1-GFP (S. cerevisiae)): binds
binding [1]: binds

B2: Asc1 (protein, UniProt P38011 1-319)
chain: MASNEVLVLRGTLEGHNGWVTSLATSAGQPNLLLSASRDKTLISWKLTGDDQKFGVPVRSFKGHSHIVQDCTLTADGAYALSASWDKTLRLWDVATGETYQRFVGHKSDVMSVDIDKKASMIISGSRDKTIKVWTIKGQCLATLLGHNDWVSQVRVVPNEKADDDSVTIISAGNDKMVKAWNLNQFQIEADFIGHNSNINTLTASPDGTLIASAGKDGEIMLWNLAAKKAMYTLSAQDEVFSLAFSPNRYWLAAATATGIKVFSLDPQYLVDDLRPEFAGYSKAAEPHAVSLAWSADGQTLFAGYTDNVIRVWQVMTAN
binding (uS3-GFP (S. cerevisiae)): binds
binding [2]: binds
binding (eRF1-GFP (S. cerevisiae)): binds

B3: large ribosomal protein uL29 (yeast Rpl35) (protein, UniProt P0CX84 1-120)
chain: T3 sequence
binding (Rli1-GFP (S. cerevisiae)): binds
binding [1]: binds

B4: eukaryotic release factor 1 (eRF1), P12385 1-437 (protein)
chain: MDNEVEKNIEIWKVKKLVQSLEKARGNGTSMISLVIPPKGQIPLYQKMLTDEYGTASNIKSRVNRLSVLSAITSTQQKLKLYNTLPKNGLVLYCGDIITEDGKEKKVTFDIEPYKPINTSLYLCDNKFHTEVLSELLQADDKFGFIVMDGQGTLFGSVSGNTRTVLHKFTVDLPKKHGRGGQSALRFARLREEKRHNYVRKVAEVAVQNFITNDKVNVKGLILAGSADFKTDLAKSELFDPRLACKVISIVDVSYGGENGFNQAIELSAEALANVKYVQEKKLLEAYFDEISQDTGKFCYGIDDTLKALDLGAVEKLIVFENLETIRYTFKDAEDNEVIKFAEPEAKDKSFAIDKATGQEMDVVSEEPLIEWLAANYKNFGATLEFITDKSSEGAQFVTGFGGIGAMLRYKVNFEQLVDESEDEYYDEDEGSDYDFI
binding [3]: binds

B5: Zwf1 (protein, UniProt P11412 1-505)
chain: MSEGPVKFEKNTVISVFGASGDLAKKKTFPALFGLFREGYLDPSTKIFGYARSKLSMEEDLKSRVLPHLKKPHGEADDSKVEQFFKMVSYISGNYDTDEGFDELRTQIEKFEKSANVDVPHRLFYLALPPSVFLTVAKQIKSRVYAENGITRVIVEKPFGHDLASARELQKNLGPLFKEEELYRIDHYLGKELVKNLLVLRFGNQFLNASWNRDNIQSVQISFKERFGTEGRGGYFDSIGIIRDVMQNHLLQIMTLLTMERPVSFDPESIRDEKVKVLKAVAPIDTDDVLLGQYGKSEDGSKPAYVDDDTVDKDSKCVTFAAMTFNIENERWEGVPIMMRAGKALNESKVEIRLQYKAVASGVFKDIPNNELVIRVQPDAAVYLKFNAKTPGLSNATQVTDLNLTYASRYQDFWIPEAYEVLIRDALLGDHSNFVRDDELDISWGIFTPLLKHIERPDGPTPEIYPYGSRGPKGLKEYMQKHKYVMPEKHPYAWPVTKPEDTKDN
binding (Rli1-GFP (S. cerevisiae)): no binding

B6: Hem15 (protein, UniProt P16622 32-393)
chain: NAQKRSPTGIVLMNMGGPSKVEETYDFLYQLFADNDLIPISAKYQKTIAKYIAKFRTPKIEKQYREIGGGSPIRKWSEYQATEVCKILDKTCPETAPHKPYVAFRYAKPLTAETYKQMLKDGVKKAVAFSQYPHFSYSTTGSSINELWRQIKALDSERSISWSVIDRWPTNEGLIKAFSENITKKLQEFPQPVRDKVVLLFSAHSLPMDVVNTGDAYPAEVAATVYNIMQKLKFKNPYRLVWQSQVGPKPWLGAQTAEIAEFLGPKVDGLMFIPIAFTSDHIETLHEIDLGVIGESEYKDKFKRCESLNGNQTFIEGMADLVKSHLQSNQLYSNQLPLDFALGKSNDPVKDLSLVFGNHEST
binding (Rli1-GFP (S. cerevisiae)): no binding
